From article PMC4336329 (PLoS ONE, 2015) come the findings set out here.

Screen size: about 310,000 compounds; about 2,200 (0.71%) showed an effect of 50% or more. The effect is printed as a negative number. The list shows a part of the results.

In the assay the target is human ether-à-go-go-related gene (hERG) potassium channel (human, UniProt Q12809). Briefly: primary screen, population patch clamp on CHO cells stably expressing hERG.
human ether-à-go-go-related gene (hERG) potassium channel, sequence (Q12809 whole entry, looked up): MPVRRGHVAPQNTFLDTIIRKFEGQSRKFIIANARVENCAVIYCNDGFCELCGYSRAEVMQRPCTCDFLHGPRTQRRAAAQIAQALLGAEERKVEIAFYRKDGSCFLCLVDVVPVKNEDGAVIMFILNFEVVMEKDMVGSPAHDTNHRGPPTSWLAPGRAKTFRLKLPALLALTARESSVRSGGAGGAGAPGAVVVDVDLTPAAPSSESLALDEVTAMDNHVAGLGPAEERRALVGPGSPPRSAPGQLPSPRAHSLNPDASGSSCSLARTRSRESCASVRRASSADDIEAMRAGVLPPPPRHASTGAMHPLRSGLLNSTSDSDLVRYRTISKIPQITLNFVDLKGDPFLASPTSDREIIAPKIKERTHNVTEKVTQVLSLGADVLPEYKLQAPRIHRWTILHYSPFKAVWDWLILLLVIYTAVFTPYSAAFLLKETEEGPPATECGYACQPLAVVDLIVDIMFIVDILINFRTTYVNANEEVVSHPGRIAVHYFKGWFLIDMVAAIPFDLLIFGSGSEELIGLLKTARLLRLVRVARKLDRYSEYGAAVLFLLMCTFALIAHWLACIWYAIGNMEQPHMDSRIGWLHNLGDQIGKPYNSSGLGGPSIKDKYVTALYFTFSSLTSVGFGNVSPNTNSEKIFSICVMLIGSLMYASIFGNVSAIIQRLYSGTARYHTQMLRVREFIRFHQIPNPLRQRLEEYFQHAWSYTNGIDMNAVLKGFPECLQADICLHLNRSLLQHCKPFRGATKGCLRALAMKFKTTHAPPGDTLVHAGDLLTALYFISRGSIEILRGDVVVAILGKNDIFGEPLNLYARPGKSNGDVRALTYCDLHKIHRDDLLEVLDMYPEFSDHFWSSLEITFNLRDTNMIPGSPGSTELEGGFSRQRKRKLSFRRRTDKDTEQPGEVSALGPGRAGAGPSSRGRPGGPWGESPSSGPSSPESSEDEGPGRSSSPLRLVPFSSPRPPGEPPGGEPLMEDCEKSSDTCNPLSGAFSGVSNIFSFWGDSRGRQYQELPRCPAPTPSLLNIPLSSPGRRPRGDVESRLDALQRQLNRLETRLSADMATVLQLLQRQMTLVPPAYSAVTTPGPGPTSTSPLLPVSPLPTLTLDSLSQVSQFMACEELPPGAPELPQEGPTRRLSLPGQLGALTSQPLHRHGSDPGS
`Cc1nn(-c2ccccc2[N+](=O)[O-])c(=O)c2ccccc12`: the “hERG current change (%, negative = inhibition) at 1uM” value is listed as 6.64%.
Under `O=C(Nc1ncccc1O)c1ccc2c(c1)OCO2` stands 8.92%; under `CCc1nn(CC(=O)NCCCN(C)C2CCCCC2)c(=O)c2cc3occc3n12`, 2.42%.
Regarding `COc1c(CC=C(C)C)c(O)cc2oc(=O)c3c4ccc(O)cc4oc3c12`, the “hERG current change (%, negative = inhibition) at 1uM” value was determined as 8.73%.
On to `NNC(=O)C1COc2cc3ccccc3cc2O1` (stereo not drawn), for which the “hERG current change (%, negative = inhibition) at 1uM” value was 16.3%.
The value for `CCOC(=O)c1ccc(NC(=S)NN)cc1` was 6.56%; that for `Cc1cc(Cn2nc(-c3ccccc3)cc2C(=O)NCc2cccs2)on1` was 4%; that for `Cc1cc2nnc(SCC(=O)Nc3ccc(Cl)cc3)n2c(N)n1` was 6.02%.
In the case of `CCOCC(O)CNC(=O)c1ccc2nc(Cc3ccc(OC)c(OC)c3)oc2c1` (stereo not drawn), the “hERG current change (%, negative = inhibition) at 1uM” value amounted to 13.9%.
On to `CN(C)C(=O)COC(=O)c1ccccc1OCC(=O)Nc1ccc(SC(F)F)cc1`, for which the “hERG current change (%, negative = inhibition) at 1uM” value is reported as -7.39%.
The value for `O=C(NCc1nnnn1-c1ccc(F)c(F)c1)c1ccc2ccccc2c1` was 0.216%; that for `COc1ccc(-n2c(=O)c3c4c(sc3n(CC(=O)Nc3cc(C)[nH]n3)c2=O)CCC4)c(OC)c1` was 13.7%; that for `Cn1c(N)c(C(=O)COC(=O)CCC(=O)c2ccc(F)cc2)c(=O)n(C)c1=O` was 5.29%.
Under `CCCC(=O)N(Cc1cc(=O)[nH]c2ccccc12)c1ccccc1OC` stands -3.28%; under `CCNc1ccccc(-c2ccc3ccccc3n2)c1=O`, 12%; under `COc1ccc2oc(C(=O)OCC(=O)N3CC(C)OC(C)C3)c(C)c2c1` (stereo not drawn), 7.82%.
Under `O=C(Nc1cccc2ccccc12)N1CCC2(CC1)OCCO2` stands 17.9%; under `COc1ccc(/C(C)=N/Nc2cc(C(F)(F)F)ccc2Cl)c(OC)c1`, 4.07%; under `O=c1c2c3c(sc2nc2n1CCCC2)CCC3`, 3.46%.
With `CC(C)Cc1nccs1`, the “hERG current change (%, negative = inhibition) at 1uM” value came out at 17.5%.
Under `CSc1nc(C=Nc2ccccc2Cl)c(O)n1Cc1cccc(Cl)c1` stands 11.9%.
`CCOC(=O)c1cn(Cc2ccc(C)cc2)nn1`: the “hERG current change (%, negative = inhibition) at 1uM” value is 16.4%.
Take `CO/N=C/c1c(C(=O)OC)nn(-c2ccccc2)c1Cl`: the “hERG current change (%, negative = inhibition) at 1uM” value came out at 17.4%.
Under `Cc1ccccc1N=Cc1cc2c(cc1O)OC(N)=C(C#N)C2c1ccccc1` (stereo not drawn) stands 6.74%; under `O=C(NC(=S)N1CCOCC1)C12CC3CCC(CC(C3)C1)C2`, 7.21%.
Turning to `Cc1ccccc1NC(=O)C(=O)NCCc1ccccc1`, the “hERG current change (%, negative = inhibition) at 1uM” value came to 3.31%.
The value for `COc1ccc(CN2CCN(C(=O)CCC(=O)Nc3nnc(C(C)C)s3)CC2)cc1F` was 5.48%; that for `COc1cc2ncnc(NCc3ccccc3F)c2cc1OC` was 10.8%.
As for `Cl.O=C(NCCCn1ccnc1)C1c2ccccc2Oc2ccccc21`, the “hERG current change (%, negative = inhibition) at 1uM” value was 0.132%.
As for `CCC(C)(C)n1nnnc1C(c1ccccc1)N1CCc2ccccc2C1` (stereo not drawn), the “hERG current change (%, negative = inhibition) at 1uM” value was -3.33%.
As to `CSc1nc2c(c(=O)[nH]1)C(c1cccs1)C1=C(CCCC1=O)N2` (stereo not drawn), the “hERG current change (%, negative = inhibition) at 1uM” value stood at 11.1%.
The value for `CCn1cc(C(=O)NCCCN2CC(C)CC(C)C2)c(=O)c2cc(S(=O)(=O)N(C)C)ccc21` (stereo not drawn) was -17.3%.
With `O=C(CN1CCOCC1)Nc1ccccc1F`, the “hERG current change (%, negative = inhibition) at 1uM” value amounted to 7.24%.
For `O=C(O)c1ccccc1-c1ccccc1C(=O)Nc1cccc(Br)c1`, the “hERG current change (%, negative = inhibition) at 1uM” value was determined as 11.1%.
Consider `Br.Cn1nc(-c2ccc(OCC(=O)N3CCN(Cc4ccccc4)CC3)cc2)c2ccccc2c1=O`, for which the “hERG current change (%, negative = inhibition) at 1uM” value is given as -5.23%.
The value for `CCN1C(=O)C(O)(CC(=O)C(C)(C)C)c2cc(Br)ccc21` (stereo not drawn) was 5.68%; that for `CCN(CC)S(=O)(=O)c1ccc(NN=c2c(=O)c3ccccc3c2=O)cc1` was 1.52%.
For `CC(C)(C)c1cc(C(=O)N/N=C/c2ccccn2)n[nH]1`, the “hERG current change (%, negative = inhibition) at 1uM” value is listed as 9.46%.
Under `O=C(CSc1cccc[n+]1[O-])C12CC3CC(CC(C3)C1)C2` stands 6.16%; under `CC(C)C[C@@H](COc1ccccc1)N1CCN(CC(C)C)CCC1=O`, -21.2%; under `O=c1c2[nH]c3ccc(F)cc3c2ncn1CCN1CCOCC1`, -15.2%.
Under `COc1cccc(C(=O)N2CCSC2=S)c1` stands -4.5%; under `COc1cc(SC)ccc1C(=O)OC(C)C(=O)Nc1ccc(NC(C)=O)cc1` (stereo not drawn), 8.79%.
On to `NC(=O)CC(NC(=O)c1ccc(Br)cc1)c1ccc(NC2CCCCCCC2)c([N+](=O)[O-])c1` (stereo not drawn), for which the “hERG current change (%, negative = inhibition) at 1uM” value is on record as 10.7%.
Under `Cc1ccc(-c2nnc(N3CCCCC3)c3ccccc23)cc1S(=O)(=O)NCC1CCCO1` (stereo not drawn) stands 8.28%.
